Results taken from PubChem BioAssay AID686979 (National Center for Advancing Translational Sciences (NCATS), 2013).
Several values for one entry are separate records, joined by “and”; a condition that tells them apart may be missing. Identical values can stand only once. Among all 420,000 compounds or so, about 50,000 (12%) were called active. Inconclusive results, whose numbers are uncertain, are shown with a selection of clear calls. Calls follow the shape of the dose curve; as a rule, active = well fitted inhibition curve with a large enough effect; inconclusive = small, poorly fitted or top-dose-only effect; inactive = flat fitted curve, though single readings scatter. A potency beside an inconclusive call is a rough fit, not a confirmed value.

Test: qHTS for Inhibitors of human tyrosyl-DNA phosphodiesterase 1 (TDP1): qHTS in cells in presence of CPT; also: nearly all actives have a fitted effect of over 55% in size
Details: chicken DT40 Tdp1-/-;hTDP1 cells + 20 nM CPT, ATP luminescence, 48 h; activity change, negative = growth inhibition: at 46.2 µM (top of the series)
Summary of the method: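 Chicken DT40 Tdp1-/- cells stably complemented with human TDP1 were seeded at 400 cells/well in medium containing 20 nM camptothecin, exposed to pin-transferred compounds, and grown at 37 °C for at least 48 hr. Viability was read as ATP luminescence.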
% is scaled to controls: 0 for no effect and ±100 for the full control effect; potency is read from the fitted curve at half-maximal effect; tags tell the direction and shape of the fitted curve.

Which Potency does the source give for COc1ccc(OCC(=O)Nc2cc(-c3nn(C)c(=O)c4ccccc34)ccc2N2CCOCC2)cc1 here?
Its Potency is inconclusive: 5.8 µM [inhibitor, single point].

For CCn1cc(C(=O)N2CCN(c3cccc(Cl)c3)CC2)c(=O)c2cc(S(=O)(=O)N3CCOCC3)ccc21, which Potency is on record?
Its Potency is “inactive”.

With Cc1[nH]c2ccccc2c1C(=O)CSC(=S)N(C)C as the compound, how does the Potency read?
Its Potency is inconclusive: 29.1 µM [inhibitor, single point].

For COc1cccc(NC(=O)CN(C)C(=O)c2ccccc2OCC(=O)Nc2cccc(C(F)(F)F)c2)c1, which Potency is on record?
Its Potency is inconclusive: 18.4 µM [inhibitor, single point].

For Cc1c(C(=O)O)c(C(=O)O)c2n1CCS2, which Potency is on record?
Its Potency is “inactive”.

Which Potency does the source give for CCc1cccc2c1NC(=O)[C@]21[C@@H]2C(=O)N(Cc3ccccc3)C(=O)[C@@H]2[C@@H]2CCCN21 here?
The Potency was inconclusive: 29.1 µM [inhibitor, single point].

Which Potency does the source give for C[C@]12CCC(=O)C=C1CC[C@H]1[C@@H]3CC[C@](O)(C(=O)CO)[C@@]3(C)C[C@H](O)[C@@]12F here?
The Potency was “inactive and inconclusive: 29.9 µM [inhibitor, single point]”.

For Cc1cc(C)n(CCc2nc(-c3ccco3)cs2)n1, which Potency is on record?
Its Potency is active: 11.2 µM.

With CCN(CC)CCNC(=O)C(=O)NCC1OCCN1S(=O)(=O)c1ccc2c(c1)OCCO2 (stereo not given) as the compound, how does the Potency read?
The Potency was “inactive”.

For COc1ccc(NC(=O)Nc2nnc(N3CCCCCC3)s2)cc1, which Potency is on record?
Its Potency is inconclusive: 29.1 µM [inhibitor, single point].

With CCCCn1c(N)c(N(CCC(C)C)C(=O)c2ccccc2-n2cnnn2)c(=O)[nH]c1=O as the compound, how does the Potency read?
Its Potency is “inactive”.

With CCOc1cc(NS(=O)(=O)c2ccc(NC(C)=O)cc2)c(OCC)cc1NC(=O)C(C)C as the compound, how does the Potency read?
The Potency was inconclusive: 18.4 µM [inhibitor, partial curve, poor fit].

Which Potency does the source give for Cc1csc(=O)n1CC(=O)OCC(=O)Nc1ccccc1C(C)C here?
Its Potency is “inactive”.

With C=C[C@]1(C)C=C2CC[C@H]3[C@@](C)(CCC[C@@]3(C)C(=O)O)[C@@H]2CC1 as the compound, how does the Potency read?
Its Potency is “inactive”.

For Clc1ccc(Cn2cc(/C=N/n3cnnc3)c3ccccc32)cc1, which Potency is on record?
The Potency was inconclusive: 29.1 µM [inhibitor, single point].

For CCCc1nc(SCC(=O)NC2CC2)c2c(C)c(C)sc2n1, which Potency is on record?
Its Potency is inconclusive: 11.6 µM [inhibitor, single point].

Which Potency does the source give for O=C(O)CCc1nn2c3ccccc3n(CC(=O)c3cccs3)c2nc1=O here?
Its Potency is “inactive”.

With CCSc1cc(N2CCCC2)nc(-c2ccc(Cl)cc2)n1 as the compound, how does the activity change, negative = growth inhibition read?
Its activity change, negative = growth inhibition is inconclusive: -31.4% [inhibitor].

Which Potency does the source give for COc1ccc(S(=O)(=O)N2CCCCC2c2cc(C(=O)Nc3ccc(F)c(Cl)c3)no2)cc1 (stereo not given) here?
The Potency was active: 16.4 µM.

For COc1ccc(CSc2nnnn2C)cc1[N+](=O)[O-], which Potency is on record?
Its Potency is “inactive”.

Which Potency does the source give for CSc1ccccc1NC(=O)c1cnc2sc(C)cn2c1=O here?
The Potency was inconclusive: 20.6 µM [inhibitor, single point].

For Cc1onc(-c2ccccc2Cl)c1C(=O)OCC(=O)N1CCCc2ccccc21, which Potency is on record?
The Potency was inconclusive: 29.1 µM [inhibitor, single point].

With O=C(NC(c1ccccc1)c1ccccc1)c1ccc(=O)[nH]n1 as the compound, how does the Potency read?
Its Potency is inconclusive: 29.1 µM [inhibitor, single point].

For Cc1noc(C)c1S(=O)(=O)N(Cc1ccccc1)C(C)C, which Potency is on record?
The Potency was “inactive”.

Which Potency does the source give for Cc1c(NC(=O)c2cc([N+](=O)[O-])ccc2N2CCOCC2)cccc1-c1nc2ccccc2o1 here?
The Potency was inconclusive: 25.9 µM [inhibitor, single point].

For Cc1ccc(NC(=O)c2nc(S(C)(=O)=O)ncc2N(Cc2ccccc2)Cc2ccco2)c(C)c1, which Potency is on record?
Its Potency is active: 13 µM.

Which Potency does the source give for CC1C(=O)N(Cc2cn(Cc3ccco3)nn2)CCS(=O)(=O)N1Cc1ccc(-c2ccccc2Cl)cc1 (stereo not given) here?
Its Potency is inconclusive: 20.6 µM [inhibitor, single point].

Which Potency does the source give for CC(=O)NCCNC(=O)c1cnn(-c2nccc(-c3cc(C)sc3C)n2)c1C here?
The Potency was inconclusive: 18.4 µM [inhibitor, single point].

With Cc1ccc(C(=O)Nc2c(-c3ccccc3)nc3ccccn23)cc1C as the compound, how does the Potency read?
The Potency was “inactive”.

With COc1ccc(NC(=O)COc2ccccc2C)cc1S(=O)(=O)N1CCCCC1 as the compound, how does the Potency read?
Its Potency is inconclusive: 29.1 µM [inhibitor, single point].

With CCOC(=O)CSc1nc(-c2cccs2)nc2c1c(=O)n(C)c(=O)n2C as the compound, how does the Potency read?
Its Potency is inconclusive: 29.1 µM [inhibitor, single point].

For O=[N+]([O-])c1cc([N+](=O)[O-])c(Oc2ccc(F)cc2F)cc1NN1CCCCC1, which Potency is on record?
Its Potency is inconclusive: 29.1 µM [inhibitor, single point].

With COc1ccc(-c2csc(NC(=O)CN3C(=O)C4CCCCC4C3=O)n2)cc1OC (stereo not given) as the compound, how does the Potency read?
The Potency was “inactive”.

Which Potency does the source give for COc1ccc(NC(C)=O)cc1NC(=O)CN1CCN(C2c3ccccc3-c3ccccc32)CC1 here?
Its Potency is “inactive”.

With CSc1cccc(NC(=O)COc2ccccc2)c1 as the compound, how does the Potency read?
Its Potency is active: 8.2 µM.

Which Potency does the source give for CCOc1ccc(S(=O)(=O)N(CC)CC(=O)NCc2ccccn2)cc1C here?
The Potency was “inactive”.

With COc1ccc(N2CCN(C(=O)COC(=O)CCOc3ccccc3C)CC2)cc1 as the compound, how does the activity change, negative = growth inhibition read?
The activity change, negative = growth inhibition was inconclusive: -31.4% [inhibitor].

With Cc1ccc(N(CC(=O)N2CC(=O)Nc3ccccc32)S(=O)(=O)c2ccc3c(c2)OCCO3)cc1 as the compound, how does the Potency read?
Its Potency is “inactive”.

With C=CCn1c(SCc2nc3ccccc3c(=O)[nH]2)nc2scc(C3CC3)c2c1=O as the compound, how does the Potency read?
Its Potency is active: 14.6 µM.

Which Potency does the source give for CC1CCCC(C)N1C(=O)COC(=O)Cc1ccc(F)cc1 (stereo not given) here?
The Potency was inconclusive: 29.1 µM [inhibitor, single point].

With COc1ccc(NC(=O)c2ccc(-c3ccc(C)c4ccccc34)o2)cc1 as the compound, how does the Potency read?
Its Potency is inconclusive: 29.1 µM [inhibitor, single point].

Which Potency does the source give for Cc1ccc(CNC(=O)Cn2c3ncccc3c(=O)n2-c2ccccc2)cc1 here?
The Potency was inconclusive: 23.1 µM [inhibitor, single point].

With CNC(=S)N1N=C(c2cccs2)CC1c1ccc(OC)cc1 (stereo not given) as the compound, how does the Potency read?
Its Potency is “inactive”.

For COc1ccccc1CNC(=O)COC(=O)c1cc(S(=O)(=O)N2CCOCC2)ccc1Cl, which Potency is on record?
The Potency was “inactive”.

With Cc1ccccc1-n1c(SCC(=O)Nc2ccccc2)nc2nc3c(cc2c1=O)CCCC3 as the compound, how does the Potency read?
Its Potency is inconclusive: 29.1 µM [inhibitor, single point].
